# Data taken from the supplement of paper PMC8728848.
# The list shows a part of the results.
# Columns and labels:
# Test in all cases: glycan array binding signal (z-score within array); higher = stronger binding
# Details in all cases: glycan notation: IUPAC condensed, linker removed; mutation: Y228A
# [1] = target: Neu5Ac(a2-6)Gal(b1-4)GlcNAc(b1-2)Man(a1-3)[Man(a1-6)]Man(b1-4)GlcNAc(b1-4)GlcNAc
# How it was run: (§1)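 Glycan array data were curated from 3228 arrays in the Consortium for Functional Glycomics database and kept only where the protein sequence was available. Glycan names were converted to IUPAC-condensed notation, and columns mapping to the same glycan were averaged. The binding signal is a within-array Z-score, averaged across arrays of the same protein sequence at different concentrations or buffers and across linkers. Negative Z-scores can be read as non-binding.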
# [2] = target: Neu5Ac(a2-6)Gal(b1-4)GlcNAc(b1-2)Man(a1-3)[Neu5Ac(a2-3)Gal(b1-4)GlcNAc(b1-2)Man(a1-6)]Man(b1-4)GlcNAc(b1-4)GlcNAc
# How it was run: as §1
# [3] = target: Neu5Ac(a2-6)Gal(b1-4)GlcNAc(b1-2)Man(a1-3)[Neu5Ac(a2-6)Gal(b1-4)GlcNAc(b1-2)Man(a1-6)]Man(b1-4)GlcNAc(b1-4)GlcNAc
# How it was run: as §1
# [4] = target: Neu5Ac(a2-6)Gal(b1-4)GlcNAc(b1-2)Man(a1-3)[Neu5Ac(a2-6)Gal(b1-4)GlcNAc(b1-2)Man(a1-6)]Man(b1-4)GlcNAc(b1-4)[Fuc(a1-6)]GlcNAc
# How it was run: as §1
# [5] = target: Neu5Ac(a2-6)Gal(b1-4)GlcNAc(b1-2)Man(a1-6)Man(b1-4)GlcNAc(b1-4)GlcNAc
# How it was run: as §1
# [6] = target: Neu5Ac(a2-6)Gal(b1-4)GlcNAc(b1-2)Man(a1-6)[Gal(b1-4)GlcNAc(b1-2)Man(a1-3)]Man(b1-4)GlcNAc(b1-4)GlcNAc
# How it was run: as §1
# [7] = target: Neu5Ac(a2-6)Gal(b1-4)GlcNAc(b1-2)Man(a1-6)[GlcNAc(b1-2)Man(a1-3)]Man(b1-4)GlcNAc(b1-4)GlcNAc
# How it was run: as §1
# [8] = target: Neu5Ac(a2-6)Gal(b1-4)GlcNAc(b1-2)Man(a1-6)[Man(a1-3)]Man(b1-4)GlcNAc(b1-4)GlcNAc
# How it was run: as §1
# [9] = target: Neu5Ac(a2-6)Gal(b1-4)GlcNAc(b1-2)[Neu5Ac(a2-6)Gal(b1-4)GlcNAc(b1-4)]Man(a1-3)[GlcNAc(b1-4)][Neu5Ac(a2-6)Gal(b1-4)GlcNAc(b1-2)[Neu5Ac(a2-6)Gal(b1-4)GlcNAc(b1-6)]Man(a1-6)]Man(b1-4)GlcNAc(b1-4)GlcNAc
# How it was run: as §1
# [10] = target: Neu5Ac(a2-6)Gal(b1-4)GlcNAc(b1-2)[Neu5Ac(a2-6)Gal(b1-4)GlcNAc(b1-4)]Man(a1-3)[GlcNAc(b1-4)][Neu5Ac(a2-6)Gal(b1-4)GlcNAc(b1-4)Man(a1-6)]Man(b1-4)GlcNAc(b1-4)GlcNAc
# How it was run: as §1
# [11] = target: Neu5Ac(a2-6)Gal(b1-4)GlcNAc(b1-2)[Neu5Ac(a2-6)Gal(b1-4)GlcNAc(b1-6)]Man(a1-6)[Neu5Ac(a2-6)Gal(b1-4)GlcNAc(b1-2)Man(a1-3)][GlcNAc(b1-4)]Man(b1-4)GlcNAc(b1-4)GlcNAc
# How it was run: as §1
# [12] = target: Neu5Ac(a2-6)Gal(b1-4)GlcNAc(b1-3)Gal(b1-3)GlcNAc
# How it was run: as §1
# [13] = target: Neu5Ac(a2-6)Gal(b1-4)GlcNAc(b1-3)Gal(b1-4)GlcNAc
# How it was run: as §1
# [14] = target: Neu5Ac(a2-6)Gal(b1-4)GlcNAc(b1-3)Gal(b1-4)GlcNAc(b1-2)Man(a1-3)[Neu5Ac(a2-6)Gal(b1-4)GlcNAc(b1-3)Gal(b1-4)GlcNAc(b1-2)Man(a1-6)]GalNAc
# How it was run: as §1
# [15] = target: Neu5Ac(a2-6)Gal(b1-4)GlcNAc(b1-3)Gal(b1-4)GlcNAc(b1-3)Gal(b1-4)GlcNAc
# How it was run: as §1
# [16] = target: Neu5Ac(a2-6)Gal(b1-4)GlcNAc(b1-3)Gal(b1-4)GlcNAc(b1-3)Gal(b1-4)GlcNAc(b1-2)Man(a1-3)[Neu5Ac(a2-6)Gal(b1-4)GlcNAc(b1-3)Gal(b1-4)GlcNAc(b1-3)Gal(b1-4)GlcNAc(b1-2)Man(a1-6)]GalNAc
# How it was run: as §1
# [17] = target: Neu5Ac(a2-6)Gal(b1-4)GlcNAc(b1-3)Gal(b1-4)GlcNAc(b1-3)GalNAc
# How it was run: as §1
# [18] = target: Neu5Ac(a2-6)Gal(b1-4)GlcNAc(b1-3)Gal(b1-4)GlcNAc(b1-3)[Neu5Ac(a2-6)Gal(b1-4)GlcNAc(b1-3)Gal(b1-4)GlcNAc(b1-6)]GalNAc
# How it was run: as §1
# [19] = target: Neu5Ac(a2-6)Gal(b1-4)GlcNAc(b1-3)Gal(b1-4)GlcNAc(b1-6)[Gal(b1-3)]GalNAc
# How it was run: as §1
# [20] = target: Neu5Ac(a2-6)Gal(b1-4)GlcNAc(b1-3)Gal(b1-4)[Fuc(a1-3)]GlcNAc(b1-3)Gal(b1-4)[Fuc(a1-3)]GlcNAc
# How it was run: as §1
# [21] = target: Neu5Ac(a2-6)Gal(b1-4)GlcNAc(b1-3)GalNAc
# How it was run: as §1
# [22] = target: Neu5Ac(a2-6)Gal(b1-4)GlcNAc(b1-3)[Neu5Ac(a2-6)Gal(b1-4)GlcNAc(b1-6)]GalNAc
# How it was run: as §1
# [23] = target: Neu5Ac(a2-6)Gal(b1-4)GlcNAc(b1-6)GalNAc
# How it was run: as §1
# [24] = target: Neu5Ac(a2-6)Gal(b1-4)GlcNAc(b1-6)[Gal(b1-3)GlcNAc(b1-3)]Gal(b1-4)Glc
# How it was run: as §1
# [25] = target: Neu5Ac(a2-6)Gal(b1-4)GlcNAc(b1-6)[Gal(b1-3)]GalNAc
# How it was run: as §1
# [26] = target: Neu5Ac(a2-6)Gal(b1-4)GlcNAc6S
# How it was run: as §1
# Neu5Ac(a2-6)GalNAc = target: Neu5Ac(a2-6)GalNAc
# How it was run: as §1
# [27] = target: Neu5Ac(a2-6)GalNAc(b1-4)GlcNAc
# How it was run: as §1
# [28] = target: Neu5Ac(a2-6)GalNAc(b1-4)GlcNAc6S
# How it was run: as §1
# [29] = target: Neu5Ac(a2-6)GlcNAc(b1-4)GlcNAc
# How it was run: as §1
# [30] = target: Neu5Ac(a2-6)GlcNAc(b1-4)GlcNAc(b1-4)GlcNAc
# How it was run: as §1
binder,measurement,setting,value
"Epa1-NP-mutant-Y228A (Candida glabrata), Q6VBJ0 (protein) MILNPALFLNKCVCIYTTLILLLLTNGGYATSSNDISLASKDPTTFPLGCSPDITTPKKGLSMELYSYDFRKKGSYPCWDAAYLDPNYPRTGYKSHRLLAKVDGVTGNINFYYHATKGCTPQLGHLPASYNYPKPLTMTNFTMLLYGYFRPKVTGFHTFTISADDLLFVNFGAGNAFDCCRRDSSADHFGNYQAYAIWGSKTAKDELTVHLDAGVYYPIRLFYNNREADGALSFTFKTESNENTVSDFSEYFFSLDDTEEGCPGLISYDSSCASVKTSKIIGIDYHTETPNENLVPITKTIYHLGIPCTGTTTTPLCGSGFYDPLANKCVTINTSSTSSVTKTTSHTTSKEVSFHSSISSQKTLIPKSIPSPYGPIKSQSIPTEMETSSEISSSEYAFSDVISTPSHSPYTKKHSSLNSSSYTSTVIHSLTSYSISQGIFSTSLSEQNITSKSSTDKFSTATSMSNNITQSSIIISQFSTNNENYTTTSMHTSSDKISTETLNNSISTTTSILFSNSSTILKNNTTIISSDKDTHYHPVNPTIVCSTNKTEIICASITQPSISNSNNHWSSSVLKFNSTTVRSTLPSSAGSNETSINVPFSSSTESNTSTSSTSTSNSKMVRSTLPSSAGSNETSISVPFSSSTESNTSTSSTSTSNSKMVRSTLPSSAGSNETSINVPFSSSTESNTSTSSTSTSNSKTVRSTPFSSAGIIMTSLSQRNNKSASSYASSNSKCYNTADSCRKVHSTPSYLLTSSYTSEGVDYDCSLVSTKLKINDTNCVNNKHTTKSCLKTSVTTTIPTLEIKTARKSSSNTIGLHSYPTSSPNKSISSAPIIGYISSFKTIKTASPSYQTSDLTTITTITSLNNPGSTAVENTHESNDKSRKTSSNDISSKHSVIKETKDAVESSNKSHQTNTLKCSSIIIASSSHNSYESLGGTTLTLTLSKVYSPQNNDTLPFLEISEVNPSRTVLPESSKMMQYLTSTEERNKTARNTIATNIVSISTFHFEGEGNAIRMGYTQLLLMLIGIIVMNIGT",glycan array binding signal (z-score),[1],-0.111
same,glycan array binding signal (z-score),[2],-0.18
same,glycan array binding signal (z-score),[3],-0.261
same,glycan array binding signal (z-score),[4],-0.218
same,glycan array binding signal (z-score),[5],-0.208
same,glycan array binding signal (z-score),[6],-0.278
same,glycan array binding signal (z-score),[7],-0.16
same,glycan array binding signal (z-score),[8],-0.207
same,glycan array binding signal (z-score),[9],-0.157
same,glycan array binding signal (z-score),[10],-0.158
same,glycan array binding signal (z-score),[11],-0.155
same,glycan array binding signal (z-score),[12],-0.264
same,glycan array binding signal (z-score),[13],-0.313
same,glycan array binding signal (z-score),[14],-0.203
same,glycan array binding signal (z-score),[15],-0.307
same,glycan array binding signal (z-score),[16],-0.01
same,glycan array binding signal (z-score),[17],-0.246
same,glycan array binding signal (z-score),[18],-0.005
same,glycan array binding signal (z-score),[19],-0.278
same,glycan array binding signal (z-score),[20],-0.199
same,glycan array binding signal (z-score),[21],-0.142
same,glycan array binding signal (z-score),[22],-0.312
same,glycan array binding signal (z-score),[23],-0.274
same,glycan array binding signal (z-score),[24],0.07
same,glycan array binding signal (z-score),[25],-0.27
same,glycan array binding signal (z-score),[26],-0.255
same,glycan array binding signal (z-score),Neu5Ac(a2-6)GalNAc,-0.255
same,glycan array binding signal (z-score),[27],-0.248
same,glycan array binding signal (z-score),[28],-0.256
same,glycan array binding signal (z-score),[29],-0.155
same,glycan array binding signal (z-score),[30],-0.066
